Assay results published in the supplement of paper PMC3724861.
The other results are listed elsewhere or left out.

These sequences were tested on T1, Caupolican (Caup) homeodomain DNA-binding domain (assay: PBM E-score (8-mer, recovered from the published 9-mer minima) (E-score (dimensionless, -0.5 to 0.5)); Drosophila protein; higher = stronger relative binding preference, active = 0.31 or more).
T1 sequence: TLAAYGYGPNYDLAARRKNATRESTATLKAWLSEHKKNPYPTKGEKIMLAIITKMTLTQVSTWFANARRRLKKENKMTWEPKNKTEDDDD
Procedure, shortened: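 Caup's homeodomain DNA-binding domain (residues 214-303) was made by in vitro transcription and translation and applied at 100 nM to custom-designed protein binding microarrays. Each value is an enrichment score that gives relative binding preference for a short DNA word, with higher meaning stronger. The 8-mer values were recovered from published 9-mer scores, each of which was the minimum of its two constituent 8-mer scores. A cutoff of 0.31 marks candidate sites.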

Row | Sequence | PBM E-score
1 | AGAAAGAT | inactive: 0.0904
2 | CTTCCTTC | inactive: -0.186
3 | CATACTTC | inactive: 0.0775
4 | CTATGCTC | inactive: 0.0374
5 | AAACGCTG | inactive: 0.0147
6 | ATTAGGGA | inactive: -0.0365
7 | GCCCACAC | inactive: -0.144
8 | AATAGGGG | inactive: -0.14
9 | CGCAGGAG | inactive: -0.175
10 | ACGGTAGT | inactive: 0.0922
11 | AAGGTGTC | inactive: 0.129
12 | AATATCTA | inactive: 0.145
13 | ATTAAACA | inactive: 0.271
14 | GAACCTCC | inactive: -0.166
15 | GGTGACGA | inactive: 0.0261
16 | CAGCTCCC | inactive: -0.166
17 | TTCAGGAA | inactive: -0.0421
18 | CTTGCCAA | inactive: 0.0457
19 | AAAGACCA | inactive: -0.0885
20 | ATGACATC | active: 0.333
21 | CCCTAGGG | inactive: -0.253
22 | CACCTCAA | inactive: -0.0613
23 | ATGAACGA | inactive: 0.103
24 | TGACCAAA | inactive: 0.0602
25 | ATTAGGCG | inactive: -0.0369

Row | Sequence | PBM E-score
26 | AATAATCT | inactive: 0.112
27 | GGAACCTA | inactive: -0.0383
28 | CGCCTACG | inactive: -0.147
29 | ACTGAATG | inactive: 0.0165
30 | CCGTAAGG | inactive: -0.166
31 | GTTAGATA | inactive: 0.172
32 | ACTCGCAT | inactive: -0.0103
33 | CACATGCC | inactive: 0.0641
34 | CACGCGAG | inactive: -0.0125
35 | GAGCAGAC | inactive: -0.0808
36 | AGAGGTGG | inactive: -0.107
37 | AGTAAAGG | inactive: -0.0118
38 | ACTAGGCC | inactive: -0.164
39 | TGACAACA | active: 0.377
40 | CGCGAGGA | inactive: -0.0824
41 | AAATAAGC | inactive: -0.0182
42 | ACTTGTAA | active: 0.403
43 | AATATGTC | inactive: 0.297
44 | GCTGGTCC | inactive: -0.114
45 | CGGTACCG | inactive: -0.116
46 | ACGGTGGG | inactive: -0.165
47 | ATCGTAAC | inactive: 0.0898
48 | GGCTTTTA | inactive: -0.0379
49 | GATTCCGC | inactive: -0.0981
50 | TCCAAGCA | inactive: 0.0075

Row | Sequence | PBM E-score
51 | CACGGTCG | inactive: -0.034
52 | CTGTCTAA | inactive: 0.0213
53 | TCTAGGCA | inactive: -0.0559
54 | CCCGTGTC | inactive: 0.145
55 | CAGAGGAA | inactive: -0.0465
56 | TGTCGTAA | inactive: 0.229
57 | CCATTCGC | inactive: -0.177
58 | CGAAAAGC | inactive: -0.0881
59 | GCCAACTA | inactive: -0.0226
60 | ATTTAGTC | inactive: 0.0884
61 | CAGATTGC | inactive: 0.0419
62 | ACCGCCCT | inactive: -0.146
63 | GGCGGGAA | inactive: -0.177
64 | CTCATCCC | inactive: -0.0874
65 | ACGACTAT | ≥ 0.162
66 | CACCTCAG | inactive: -0.0141
67 | CGTGAGGC | inactive: -0.146
68 | CAAGGCCA | inactive: 0.00207
69 | AGGGATCG | inactive: -0.00681
70 | CCCGTTGA | inactive: -0.0801
71 | GGCGGACC | inactive: -0.262
72 | GCCAGCAA | inactive: -0.125
73 | CTAAACAC | inactive: 0.182
74 | ACGACTAA | inactive: 0.0797
75 | AAAGTAAG | inactive: 0.0511

Row | Sequence | PBM E-score
76 | CATCGGGC | inactive: -0.144
77 | TGGATACA | inactive: 0.221
78 | GGCGCCAC | inactive: -0.232
79 | CAGCTTCC | inactive: -0.193
80 | GTGGGAAC | inactive: -0.0676
81 | CGCCGACG | inactive: -0.223
82 | ACACCCCC | inactive: -0.103
83 | CATCGATA | inactive: 0.19
84 | AGACATTC | inactive: 0.177
85 | CCAAAGAA | inactive: -0.0979
86 | CAGACCAG | inactive: -0.0755
87 | CCTGTGCA | inactive: -0.0159
88 | AGTCTAAT | inactive: 0.0485
89 | GATTGACA | inactive: 0.276
90 | AGGGTCTG | inactive: -0.156
91 | ACGAGCCA | ≥ 0.0794
92 | GATTGACC | inactive: -0.046
93 | GACTGATC | inactive: 0.0481
94 | AGCCATCG | inactive: -0.00355
95 | AAGCCCGC | inactive: -0.226
96 | GCCACAAC | inactive: 0.00109
97 | CCACAGGC | inactive: -0.236
98 | AGAGCGCC | inactive: -0.211
99 | AGTACCGA | inactive: 0.0457
100 | CACTGTAG | inactive: 0.0607

Row | Sequence | PBM E-score
101 | ATAGATAA | inactive: 0.137
102 | ACTCGACC | inactive: -0.0389
103 | AAGAGAGC | inactive: -0.186
104 | CCGGTAAA | inactive: -0.024
105 | GGCAAGGA | inactive: -0.11
106 | CAGCACTG | inactive: -0.137
107 | CCATAAGC | inactive: -0.0898
108 | AAGTCGCA | inactive: 0.0117
109 | TATGTCAA | active: ≥ 0.359
110 | CCGATCCG | inactive: -0.0385
111 | AATCGCGA | ≥ 0.0397
112 | ATGGCGCC | inactive: -0.186
113 | AGACGGCA | inactive: -0.0383
114 | CCTATCGC | inactive: -0.166
115 | ATACCTCG | inactive: 0.112
116 | AAGCGGGC | inactive: -0.228
117 | AAATTGTT | inactive: 0.177
118 | CTCGCTTA | inactive: -0.0736
119 | ATCTGCCA | ≥ -0.00773
120 | ATATGGTC | inactive: 0.105
121 | CCACGCAC | inactive: -0.144
122 | ACCACACA | ≥ 0.0835
123 | GGAGGGCC | inactive: -0.279
124 | CTGACCTA | inactive: 0.0422
125 | ACAGCTGC | inactive: -0.0304

Row | Sequence | PBM E-score
126 | ATAACCTG | inactive: 0.124
127 | ATGATTGA | inactive: 0.126
128 | AACCGCAG | inactive: -0.179
129 | ACGACTCC | inactive: -0.031
130 | CATCATGA | inactive: 0.11
131 | ACCGCTGC | inactive: -0.148
132 | CATTGTAA | inactive: 0.276
133 | CACTGTTA | inactive: 0.0593
134 | AACCGAGG | inactive: -0.103
135 | CGTTCCTC | inactive: -0.131
136 | CCTAACGC | inactive: -0.159
137 | AGCTGAAT | inactive: 0.0188
138 | CATCAGTA | inactive: 0.176
139 | AGTGGAAT | inactive: -0.0202
140 | CGACTGAG | inactive: -0.188
141 | CATTAACA | inactive: 0.234
142 | GAGTTGTA | inactive: 0.24
143 | CCCCGCCG | inactive: -0.23
144 | ATAACTTA | ≥ 0.197
145 | ACTCCCAG | inactive: -0.0401
146 | ACAGGATG | inactive: 0.249
147 | CATCCGAC | inactive: 0.0265
148 | ACAGGAGA | ≥ 0.148
149 | ACATCCGC | inactive: 0.134
150 | ATCAGCCG | inactive: -0.0947

Row | Sequence | PBM E-score
151 | TGGGAGAA | inactive: -0.106
152 | CTATTAAC | inactive: 0.178
153 | CAATAGCG | inactive: -0.101
154 | GTGTTGCA | inactive: 0.184
155 | AGCCCTAC | inactive: -0.0687
156 | GTCATCTA | inactive: 0.0593
157 | AGAAATCT | inactive: -0.0884
158 | GACATGCC | active: 0.35
159 | GGGATTAA | inactive: 0.0457
160 | ATAAGGAA | inactive: 0.0175
161 | CATCTCCA | inactive: -0.0479
162 | CCGGGACG | inactive: -0.22
163 | ATTTTCGG | inactive: -0.0124
164 | ATTGACTG | ≥ 0.098
165 | TTATACAA | inactive: 0.28
166 | ACACATTG | inactive: 0.201
167 | ACGAACAT | active: 0.349
168 | CGCTGTAA | inactive: 0.138
169 | ACTGCAGT | inactive: 0.0445
170 | TGCTTCCA | ≥ 0.0143
171 | AGGGCCAG | inactive: -0.228
172 | AGAATTCA | inactive: -0.0191
173 | CTTCTGGA | inactive: -0.0374
174 | ACTCCCAT | ≥ 0.0276
175 | GGCCTCCC | inactive: -0.367

Row | Sequence | PBM E-score
176 | ATTCACAC | inactive: 0.145
177 | GCTACGCA | inactive: -0.151
178 | AAGAGCGT | inactive: -0.0251
179 | AGACATGA | active: 0.341
180 | GGAACTTA | inactive: -0.0199
181 | GCTTCTGA | inactive: -0.0992
182 | CCCCTCAC | inactive: -0.178
183 | CCTAGGAC | inactive: -0.0698
184 | GAGTCAGC | inactive: -0.111
185 | GTGAGCAA | inactive: 0.00908
186 | GCGATGCC | inactive: -0.178
187 | ACAAATCG | inactive: 0.118
188 | AAGGCCCG | inactive: -0.268
189 | ATTGGGGC | inactive: -0.183
190 | AGCATATG | inactive: 0.114
191 | AAGATAGG | inactive: 0.0556
192 | GGTATATA | inactive: 0.0845
193 | AGCTCCAT | inactive: -0.0621
194 | GTCTATAA | inactive: 0.152
195 | CATGAGGC | inactive: -0.122
196 | TAAACCCA | inactive: 0.0711
197 | CTTATCGA | inactive: 0.129
198 | AGATAGAA | inactive: 0.0568
199 | ATCAACAG | inactive: 0.109
200 | ACAGGGAC | inactive: 0.0219

Row | Sequence | PBM E-score
201 | CTCCGTGC | inactive: -0.193
202 | CACCCGCA | inactive: -0.198
203 | GCGCTTAC | inactive: -0.124
204 | AACAACAT | active: 0.409
205 | ACTCAAGT | inactive: 0.079
206 | TGCGGACA | inactive: 0.0958
207 | GGGCTACA | inactive: 0.0237
208 | AGTGTAGG | inactive: 0.0998
209 | GACATAAC | active: 0.325
210 | CACAGAGC | inactive: 0.00442
211 | AGATTTTG | inactive: 0.062
212 | ACTGATTC | inactive: 0.136
213 | GAAATTCA | inactive: 0.0378
214 | CTTAGCAA | inactive: -0.0329
215 | CACGTGCA | inactive: 0.0826
216 | GTCGCGAC | inactive: 0.0891
217 | CCGCAAGC | inactive: -0.198
218 | CGGTAAGC | inactive: -0.155
219 | AGCTTAAA | inactive: 0.00664
220 | AACCTATG | inactive: 0.138
221 | ATGAGGGC | inactive: -0.0745
222 | GCTTCAAA | inactive: -0.018
223 | GGACCTCA | inactive: -0.132
224 | CTAACTTC | inactive: 0.0814
225 | GGCACTGA | inactive: -0.0563
